Laboratory results as given in PubChem BioAssay AID686979 (National Center for Advancing Translational Sciences (NCATS), 2013).
Among all 420,000 compounds or so, about 50,000 (12%) were called active. The inconclusive results got no clear call from the source; some entries with a clear call stand among them for comparison. The call rests on the fitted dose curve; in most records, active means well fitted inhibition curve with a large enough effect; inconclusive means small, poorly fitted or top-dose-only effect; inactive means flat fitted curve, though single readings scatter. Potencies of inconclusive entries are left out as doubtful fits.

Experiment: qHTS for Inhibitors of human tyrosyl-DNA phosphodiesterase 1 (TDP1): qHTS in cells in presence of CPT; further: nearly all actives have a fitted effect of over 55% in size
Conditions: chicken DT40 Tdp1-/-;hTDP1 cells + 20 nM CPT, ATP luminescence, 48 h; activity change, negative = growth inhibition: at 46.2 µM (top of the series) unless noted
Outline: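 Chicken DT40 Tdp1-/- cells stably complemented with human TDP1 were seeded at 400 cells/well in medium containing 20 nM camptothecin, exposed to pin-transferred compounds, and grown at 37 °C for at least 48 hr. Viability was read as ATP luminescence.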
On the % scale 0 is the no-effect control and ±100 the full control effect; potency means the concentration at half of the fitted maximal effect; tags describe the fitted curve by direction and shape.

SMILES | activity change, negative = growth inhibition | Potency
Cc1cc(C)nc(NC2=NCCN2C(=S)Nc2ccc(C)c(C)c2)n1 | inactive: 2.45% | –
COc1ccc(C(=O)N/N=C/c2ccc(OC)c(COc3ccc(F)cc3F)c2)cc1 | – | inconclusive [inhibitor, partial curve]
CC(=O)c1cccc(NC(=O)CN(c2ccc(C)cc2)S(=O)(=O)c2cccc3nonc23)c1 | – | inconclusive [inhibitor, single point]
CC(=O)N1CCC(C(=O)N2c3ccccc3N=C(c3ccc4c(c3)OCO4)C2C(=O)Nc2c(C)cccc2C)CC1 (configuration not stated) | – | inconclusive [inhibitor, single point]
CCOc1ccccc1CNC(=O)Cn1ccc2cc(S(=O)(=O)N3CCC(C)CC3)ccc21 | – | inconclusive [inhibitor, single point]
COc1ccc(CN(C)CC(=O)NC(C)c2ccccc2)c(OC)c1 (configuration not stated) | – | inconclusive [inhibitor, single point]
CCC(C)c1ccc(NC(=O)COC(=O)C2CCCC2)cc1 (configuration not stated) | inactive: 8.46% | –
COc1ccc(-c2ccccc2NC(=O)C2CCCN(Cc3ccc(C)o3)C2)cc1 (configuration not stated) | – | inconclusive [inhibitor, single point]
CCOC(=O)c1c(-c2ccccc2)oc2ccc(OCC(O)CN(C)C)cc12 (configuration not stated) | – | inconclusive [inhibitor, single point]
CC(C)(C)n1nnnc1C(c1ccncc1)N(Cc1ccccc1)Cc1ccco1 (configuration not stated) | – | inconclusive [inhibitor, single point]
CC(=O)N1c2ccc(S(=O)(=O)N3CCCC(C(=O)Nc4cccc(F)c4)C3)cc2CC1C (configuration not stated) | – | active: 11.6 µM
COc1ccc(Oc2ccc(N/C=C3\CCCC3=O)cc2)cc1 | – | inconclusive [inhibitor, partial curve]
S=c1[nH]c2ccccc2n1Cc1ccccc1 | – | inconclusive [inhibitor, single point]
CCCC(=O)Nc1cc(OC)c(NC(=O)NC2CCCCC2)cc1OC | inactive: -18.6% | –
CCn1c(=NC(=O)c2ccc(S(=O)(=O)N3CCCCC3)cc2)sc2cccc(OC)c21 | – | active: 2.59 µM
O=C(CNC(=O)c1cc(-c2ccccc2)nn1-c1ccccc1)Nc1ccccc1Br | – | inconclusive [inhibitor, single point]
OC(c1ccco1)c1nc(-c2ccc(F)c(Cl)c2)cs1 (configuration not stated) | – | inconclusive [inhibitor, partial curve]
CCN(CC)CCn1c(=S)[nH]c2cc(C(=O)NCc3ccc(C)cc3)ccc2c1=O | inactive: -5.89% | –
COc1cc(CCC(=O)N2CCN(c3cccc(C)c3C)CC2)cc(OC)c1OC | – | active: 11.6 µM
CCCCCCCCCCOC(=O)NC1CCS(=O)(=O)C1 (configuration not stated) | – | inconclusive [inhibitor, single point]
CCOC(=O)c1cccc(NC(=O)CC(c2cc(OC)c(OC)c(OC)c2)N2Cc3ccccc3C2=O)c1 (configuration not stated) | – | inconclusive [inhibitor, single point]
CC1CCc2c(sc3ncn(CC(=O)N=Nc4c(O)[nH]c5ccccc45)c(=O)c23)C1 (configuration not stated) | – | inconclusive [inhibitor, single point]
CCN(CC)CCN(C)c1ccc(/C=C/c2ccnc3ccccc23)cc1 | – | inconclusive [inhibitor, partial curve, poor fit]
CCOC(=O)C1CCN(c2c(C(=O)c3ccc(OCC)cc3)cnc3ccc(OC)cc23)CC1 | – | active: 23.1 µM

SMILES | activity change, negative = growth inhibition | Potency
Oc1c(C(c2ccccc2F)N2CCOCC2)sc2nc(-c3ccco3)nn12 (configuration not stated) | inactive: 0.173% | –
CN1CC(C(=O)Nc2ccc(F)c(Cl)c2)CC1=O (configuration not stated) | inactive: 1.28% | –
COc1ccc(C(=O)N(Cc2nc(-c3ccc(C)cc3)no2)C(C)C)cc1OC | inactive: -89.4% | –
COc1ccc(N(Cc2cc3cc(OC)ccc3[nH]c2=O)C(=O)c2cccnc2)cc1 | – | active: 16.4 µM
COC(=O)c1ccc(NC(=O)CCc2c(C)nc3c(c(C)nn3-c3ccc(C)cc3)c2C)cc1 | – | inconclusive [inhibitor, single point]
Cc1nnc(NN)n(N)c1=O | – | inconclusive [inhibitor, single point]
CCCCn1c(=O)[nH]c(=O)c2c1nc(-c1ccc(OC)c(Br)c1)n2CC(C)C | – | inconclusive [inhibitor, single point]
Cc1noc(C)c1C(=O)NCCc1ccc(Cl)cc1 | inactive: 4.57% | –
COc1cc(C(=O)Nc2nccs2)cc(OC)c1OC | – | inconclusive [inhibitor, partial curve]
Cc1ccc(N(O)C(C)(C)C)cc1 | – | active: 23.1 µM
Cc1c(C(=O)N(CCO)C(C)C)cnn1-c1ncc2c(n1)-c1ccccc1CCC2 | inactive: 4.27% | –
Cc1ccccc1-n1cc(C(=O)c2cc(Cl)ccc2O)cc(C#N)c1=O | – | inconclusive [inhibitor, single point]
CCOc1ccc(Br)cc1S(=O)(=O)Nc1ccc(NC(=O)c2ccccc2F)cc1 | – | inconclusive [inhibitor, single point]
CCC(CC)C(=O)N1CCN(c2ccccc2)CC1 | inactive: 15.7% | –
Cc1c(Cl)cccc1NC(=O)CC(c1cccs1)N1Cc2ccccc2C1=O (configuration not stated) | – | active: 16.4 µM
CCC(C)NC(=O)CN(c1cc(Cl)ccc1OC)S(C)(=O)=O (configuration not stated) | inactive: -23.9% | –
C=Cc1ccc(Cn2c(=O)n(C)c(=O)c3sccc32)cc1 | – | active: 3.66 µM
CCCCn1cnc2c(SCc3ccccc3)nc(N)nc21 | – | inconclusive [inhibitor, partial curve]
CCN(CC)CCCn1c2c(c(SCC(=O)Nc3nc(C)cs3)nc1=O)CCC2 | inactive: -2.67% | –
Cc1cccc(-n2c(SCCC(=O)O)nnc2-c2cccs2)c1C | – | inconclusive [inhibitor, single point]
COc1cccc(CCN2C(=O)CCC3=C2CCC3=O)c1 | inactive: -22% | –
Cc1sc2nc(SCC(=O)NCc3ccco3)n(CCc3ccccc3)c(=O)c2c1C | – | inconclusive [inhibitor, partial curve]
CCN(c1ccccc1)S(=O)(=O)c1ccc2[nH]cc(C(=O)NC3CCCCC3)c(=O)c2c1 | – | inconclusive [inhibitor, partial curve, poor fit]
